{
  "source": "the supplement of paper PMC8728848",
  "binders": {"B1": {"name": "CFEM-PPl (Pichia pastoris), F2QPV1 (protein)", "chain": "AVATPPACLLACAAEVVKESSDCDALNNIQCICENEGSAIHACLESTCPDGLSSTALQSFEDVCESVGTEANLDE"}},
  "test_in_all_cases": "glycan array binding signal (z-score within array); higher = stronger binding",
  "conditions_in_all_cases": "glycan notation: IUPAC condensed, linker removed",
  "key": {"[1]": {"target": "Neu5Ac(a2-6)Gal(b1-4)GlcNAc(b1-2)Man(a1-3)[GlcNAc(b1-4)][Neu5Ac(a2-6)Gal(b1-4)GlcNAc(b1-2)Man(a1-6)]Man(b1-4)GlcNAc(b1-4)GlcNAc", "how_it_was_run": "(§1)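 Arrays were curated from the Consortium for Functional Glycomics database, 3228 in total, and kept only where the protein sequence was available. Binding is expressed as a within-array Z-score. This score was averaged across arrays of the same protein sequence at different concentrations or buffers and across linkers, and negative values can be read as non-binding.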"}, "[2]": {"target": "Neu5Ac(a2-6)Gal(b1-4)GlcNAc(b1-2)Man(a1-3)[Man(a1-6)]Man(b1-4)GlcNAc(b1-4)GlcNAc", "how_it_was_run": "as §1"}, "[3]": {"target": "Neu5Ac(a2-6)Gal(b1-4)GlcNAc(b1-2)Man(a1-3)[Neu5Ac(a2-3)Gal(b1-4)GlcNAc(b1-2)Man(a1-6)]Man(b1-4)GlcNAc(b1-4)GlcNAc", "how_it_was_run": "as §1"}, "[4]": {"target": "Neu5Ac(a2-6)Gal(b1-4)GlcNAc(b1-2)Man(a1-3)[Neu5Ac(a2-6)Gal(b1-4)GlcNAc(b1-2)Man(a1-6)]Man(b1-4)GlcNAc(b1-4)GlcNAc", "how_it_was_run": "as §1"}, "[5]": {"target": "Neu5Ac(a2-6)Gal(b1-4)GlcNAc(b1-2)Man(a1-3)[Neu5Ac(a2-6)Gal(b1-4)GlcNAc(b1-2)Man(a1-6)]Man(b1-4)GlcNAc(b1-4)[Fuc(a1-6)]GlcNAc", "how_it_was_run": "as §1"}, "[6]": {"target": "Neu5Ac(a2-6)Gal(b1-4)GlcNAc(b1-2)Man(a1-6)Man(b1-4)GlcNAc(b1-4)GlcNAc", "how_it_was_run": "as §1"}, "[7]": {"target": "Neu5Ac(a2-6)Gal(b1-4)GlcNAc(b1-2)Man(a1-6)[Gal(b1-4)GlcNAc(b1-2)Man(a1-3)]Man(b1-4)GlcNAc(b1-4)GlcNAc", "how_it_was_run": "as §1"}, "[8]": {"target": "Neu5Ac(a2-6)Gal(b1-4)GlcNAc(b1-2)Man(a1-6)[GlcNAc(b1-2)Man(a1-3)]Man(b1-4)GlcNAc(b1-4)GlcNAc", "how_it_was_run": "as §1"}, "[9]": {"target": "Neu5Ac(a2-6)Gal(b1-4)GlcNAc(b1-2)Man(a1-6)[Man(a1-3)]Man(b1-4)GlcNAc(b1-4)GlcNAc", "how_it_was_run": "as §1"}, "[10]": {"target": "Neu5Ac(a2-6)Gal(b1-4)GlcNAc(b1-2)[Neu5Ac(a2-6)Gal(b1-4)GlcNAc(b1-4)]Man(a1-3)[GlcNAc(b1-4)][Neu5Ac(a2-6)Gal(b1-4)GlcNAc(b1-2)[Neu5Ac(a2-6)Gal(b1-4)GlcNAc(b1-6)]Man(a1-6)]Man(b1-4)GlcNAc(b1-4)GlcNAc", "how_it_was_run": "as §1"}, "[11]": {"target": "Neu5Ac(a2-6)Gal(b1-4)GlcNAc(b1-2)[Neu5Ac(a2-6)Gal(b1-4)GlcNAc(b1-4)]Man(a1-3)[GlcNAc(b1-4)][Neu5Ac(a2-6)Gal(b1-4)GlcNAc(b1-4)Man(a1-6)]Man(b1-4)GlcNAc(b1-4)GlcNAc", "how_it_was_run": "as §1"}, "[12]": {"target": "Neu5Ac(a2-6)Gal(b1-4)GlcNAc(b1-2)[Neu5Ac(a2-6)Gal(b1-4)GlcNAc(b1-6)]Man(a1-6)[Neu5Ac(a2-6)Gal(b1-4)GlcNAc(b1-2)Man(a1-3)][GlcNAc(b1-4)]Man(b1-4)GlcNAc(b1-4)GlcNAc", "how_it_was_run": "as §1"}, "[13]": {"target": "Neu5Ac(a2-6)Gal(b1-4)GlcNAc(b1-3)Gal(b1-3)GlcNAc", "how_it_was_run": "as §1"}, "[14]": {"target": "Neu5Ac(a2-6)Gal(b1-4)GlcNAc(b1-3)Gal(b1-4)GlcNAc", "how_it_was_run": "as §1"}, "[15]": {"target": "Neu5Ac(a2-6)Gal(b1-4)GlcNAc(b1-3)Gal(b1-4)GlcNAc(b1-2)Man(a1-3)[Neu5Ac(a2-6)Gal(b1-4)GlcNAc(b1-3)Gal(b1-4)GlcNAc(b1-2)Man(a1-6)]GalNAc", "how_it_was_run": "as §1"}, "[16]": {"target": "Neu5Ac(a2-6)Gal(b1-4)GlcNAc(b1-3)Gal(b1-4)GlcNAc(b1-3)Gal(b1-4)GlcNAc", "how_it_was_run": "as §1"}, "[17]": {"target": "Neu5Ac(a2-6)Gal(b1-4)GlcNAc(b1-3)Gal(b1-4)GlcNAc(b1-3)Gal(b1-4)GlcNAc(b1-2)Man(a1-3)[Neu5Ac(a2-6)Gal(b1-4)GlcNAc(b1-3)Gal(b1-4)GlcNAc(b1-3)Gal(b1-4)GlcNAc(b1-2)Man(a1-6)]GalNAc", "how_it_was_run": "as §1"}, "[18]": {"target": "Neu5Ac(a2-6)Gal(b1-4)GlcNAc(b1-3)Gal(b1-4)GlcNAc(b1-3)GalNAc", "how_it_was_run": "as §1"}, "[19]": {"target": "Neu5Ac(a2-6)Gal(b1-4)GlcNAc(b1-3)Gal(b1-4)GlcNAc(b1-3)[Neu5Ac(a2-6)Gal(b1-4)GlcNAc(b1-3)Gal(b1-4)GlcNAc(b1-6)]GalNAc", "how_it_was_run": "as §1"}, "[20]": {"target": "Neu5Ac(a2-6)Gal(b1-4)GlcNAc(b1-3)Gal(b1-4)GlcNAc(b1-6)[Gal(b1-3)]GalNAc", "how_it_was_run": "as §1"}, "[21]": {"target": "Neu5Ac(a2-6)Gal(b1-4)GlcNAc(b1-3)Gal(b1-4)[Fuc(a1-3)]GlcNAc(b1-3)Gal(b1-4)[Fuc(a1-3)]GlcNAc", "how_it_was_run": "as §1"}, "[22]": {"target": "Neu5Ac(a2-6)Gal(b1-4)GlcNAc(b1-3)GalNAc", "how_it_was_run": "as §1"}, "[23]": {"target": "Neu5Ac(a2-6)Gal(b1-4)GlcNAc(b1-3)[Neu5Ac(a2-6)Gal(b1-4)GlcNAc(b1-6)]GalNAc", "how_it_was_run": "as §1"}, "[24]": {"target": "Neu5Ac(a2-6)Gal(b1-4)GlcNAc(b1-6)GalNAc", "how_it_was_run": "as §1"}, "[25]": {"target": "Neu5Ac(a2-6)Gal(b1-4)GlcNAc(b1-6)[Gal(b1-3)GlcNAc(b1-3)]Gal(b1-4)Glc", "how_it_was_run": "as §1"}, "[26]": {"target": "Neu5Ac(a2-6)Gal(b1-4)GlcNAc(b1-6)[Gal(b1-3)]GalNAc", "how_it_was_run": "as §1"}, "[27]": {"target": "Neu5Ac(a2-6)Gal(b1-4)GlcNAc6S", "how_it_was_run": "as §1"}, "Neu5Ac(a2-6)GalNAc": {"target": "Neu5Ac(a2-6)GalNAc", "how_it_was_run": "as §1"}, "[28]": {"target": "Neu5Ac(a2-6)GalNAc(b1-4)GlcNAc", "how_it_was_run": "as §1"}, "[29]": {"target": "Neu5Ac(a2-6)GalNAc(b1-4)GlcNAc6S", "how_it_was_run": "as §1"}, "[30]": {"target": "Neu5Ac(a2-6)GlcNAc(b1-4)GlcNAc", "how_it_was_run": "as §1"}},
  "note": "The other results are listed elsewhere or left out.",
  "data": [
    {"binder": "B1", "values": [
      {"measurement": "glycan array binding signal (z-score)", "setting": "[1]", "value": -0.317},
      {"measurement": "glycan array binding signal (z-score)", "setting": "[2]", "value": -0.221},
      {"measurement": "glycan array binding signal (z-score)", "setting": "[3]", "value": -0.342},
      {"measurement": "glycan array binding signal (z-score)", "setting": "[4]", "value": -0.154},
      {"measurement": "glycan array binding signal (z-score)", "setting": "[5]", "value": -0.212},
      {"measurement": "glycan array binding signal (z-score)", "setting": "[6]", "value": -0.164},
      {"measurement": "glycan array binding signal (z-score)", "setting": "[7]", "value": -0.173},
      {"measurement": "glycan array binding signal (z-score)", "setting": "[8]", "value": -0.196},
      {"measurement": "glycan array binding signal (z-score)", "setting": "[9]", "value": -0.165},
      {"measurement": "glycan array binding signal (z-score)", "setting": "[10]", "value": -0.31},
      {"measurement": "glycan array binding signal (z-score)", "setting": "[11]", "value": -0.281},
      {"measurement": "glycan array binding signal (z-score)", "setting": "[12]", "value": -0.236},
      {"measurement": "glycan array binding signal (z-score)", "setting": "[13]", "value": -0.315},
      {"measurement": "glycan array binding signal (z-score)", "setting": "[14]", "value": -0.404},
      {"measurement": "glycan array binding signal (z-score)", "setting": "[15]", "value": -0.318},
      {"measurement": "glycan array binding signal (z-score)", "setting": "[16]", "value": -0.307},
      {"measurement": "glycan array binding signal (z-score)", "setting": "[17]", "value": 0.117},
      {"measurement": "glycan array binding signal (z-score)", "setting": "[18]", "value": -0.213},
      {"measurement": "glycan array binding signal (z-score)", "setting": "[19]", "value": -0.2},
      {"measurement": "glycan array binding signal (z-score)", "setting": "[20]", "value": 0.607},
      {"measurement": "glycan array binding signal (z-score)", "setting": "[21]", "value": -0.201},
      {"measurement": "glycan array binding signal (z-score)", "setting": "[22]", "value": -0.218},
      {"measurement": "glycan array binding signal (z-score)", "setting": "[23]", "value": -0.305},
      {"measurement": "glycan array binding signal (z-score)", "setting": "[24]", "value": 0.028},
      {"measurement": "glycan array binding signal (z-score)", "setting": "[25]", "value": -0.133},
      {"measurement": "glycan array binding signal (z-score)", "setting": "[26]", "value": 0.557},
      {"measurement": "glycan array binding signal (z-score)", "setting": "[27]", "value": -0.197},
      {"measurement": "glycan array binding signal (z-score)", "setting": "Neu5Ac(a2-6)GalNAc", "value": -0.163},
      {"measurement": "glycan array binding signal (z-score)", "setting": "[28]", "value": -0.261},
      {"measurement": "glycan array binding signal (z-score)", "setting": "[29]", "value": -0.282},
      {"measurement": "glycan array binding signal (z-score)", "setting": "[30]", "value": -0.245}
    ]}
  ]
}
